Reference: the supplement of paper PMC11417369
The list shows a part of the results.

System: PF3D7_0420300 AP2 domain 1 (GST-tagged)
Experiment: gcPBM binding intensity (ln(normalized median fluorescence intensity)); higher = stronger DNA binding
How it was run: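 GST-tagged P. falciparum DNA-binding domains, expressed in E. coli (about 25 μg on average), were applied for 1 h to an Agilent 4 × 180k array of primer-extended double-stranded 36-bp intergenic genomic probes plus negative controls. The binding buffer was 1× PBS with 1% milk, 0.2 mg/ml BSA, 0.5% salmon testes DNA and 0.03% Triton X-100. Bound protein was detected with Alexa488 anti-GST antibody and scanned at 488 nm. Binding intensity is the highest Masliner-normalised natural-log median intensity across replicate spots of either probe orientation.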

Sequence | gcPBM binding intensity (ln)
CAAGCACCCAGACACACACACACACCCACACCCACA [CACACA_site369] | 10.2
GGAATATTTATACATACACACATATATTTATTTATA [CACACA_site6883] | 9.53
AGTCATTAAATATAATGTACATGGAAAAACAGCTGA [XGTACX_site7944] | 9.42
ATGTAGACATAATGGGGTACAAAAAAAAAAAAAAAA [XGTACX_site881] | 9
AATAATTGTTAAAGGTGTACAATACGTATGTAAGAA [XGTACX_site1328] | 9.53
AACAGATATATATGTAGTACATGTTCTAGATATTTT [XGTACX_site1208] | 9.21
AATATAAACATAGATAGATAAATAAATAAATAAACA [GTGCAC_negctrl_site567] | 9.43
GACAAATTATTGTGTACACAATATTATTATATATAC [CACACA_site6020] | 9.44
ACAAATAAAAATATTACACACACTATTCTAGTGATA [CACACA_site6812] | 9.46
TAAATATATATAATTACACACTTTTCTATAATATGA [CACACA_site711] | 9.26
CTTATGTTTTTTAAGTGTACATATTATACGTATTAT [XGTACX_site1176] | 9.45
TTAAGATATATAAAGAGTACACATAAGAGTAATGCT [XGTACX_site58] | 9.38
TATAATACATTATATTGTACTATATTATAATAAATT [XGTACX_site5934] | 9.15
ATATTACCCATATATGCACACATTGTAGTTATTTAT [CACACA_site2636] | 9.89
ATATAATTACCATATGGTACACACATATATATATGT [XGTACX_site7393] | 9.72
TTTTGTAGCAAAAAATAGGAAAAAAAAAAATTAAAT [GTGCAC_negctrl_site8] | 9.13
TTAAGATACAAAAAAGTGCATATTTTTTAACAAAAA | 9.09
CACATACCCATACAAACACACATTATATATATATAT [CACACA_site4965] | 9.6
AAAAAAAAAAAAAAAACACACATAAATAGCTCAAAT [CACACA_site3973] | 9.64
GATATATAAATAGATACACACATACATACATACATA [CACACA_site6260] | 9.73
ATATCGTGTGCATTAACACACATTTATTTGAATAAA [CACACA_site7162] | 9.35
TACGATTAAAAAAAATGTACAGATTTTTATAGAATA [XGTACX_site6561] | 8.93
CGTTACACAAAAATATGTACATATATACATATATAT [XGTACX_site4631] | 9.25

Sequence | gcPBM binding intensity (ln)
TATAAATATAAATACTGTACATTATATTATATAATA [XGTACX_site2480] | 9.1
TATTCCCCCAAACACACACACACACCCACATACCAC [CACACA_site2304] | 10.3
TAAAAATAATATTAATGTACATTACATATTAATATA [XGTACX_site1019] | 9.01
AATGCGCATTTTTTTTTTTTTTTTTTTTTTTTTTTT [XGTACX_negctrl_site258] | 9.32
ATATATATATATATGTGTACATATTAGTGATATAAT [XGTACX_site7161] | 9.46
ATCATTTAAACAATATGTACTCATTGTAGATATGGT [XGTACX_site5088] | 9.21
TGAATAAAATATTATACACACATATGTATTTAACAT [CACACA_site4694] | 9.4
TTGTATTTACTATACACACACATACATACATACATA [CACACA_site4603] | 9.83
AATGGGATCATGGTATGTACTTACACAAATGAATTA [XGTACX_site5389] | 9.19
TAATATTGACTATATACACACATATAAATATAAATA [CACACA_site6414] | 9.57
TATATATATATATATACATGCATCATTGTTCACCTT [TGCATGCA_site177] | 9.5
AAAAAAAAAAAAAAAAGTACATATGCTCAAGAGATG [XGTACX_site3783] | 9.23
TTTTTTTTTTAATTAACACACATAAATATAAATATA [CACACA_site7527] | 9.11
CATTCAAAGAAAAACAGTACGTGTAGCAAAAGGCCT [XGTACX_site266] | 9.45
TAAATAATATAATTATGTACGTATTTCTTTATTTTA [XGTACX_site8410] | 9.21
GCTGAAAATAAATGAAGTACACAAGTAATATATATA [XGTACX_site6205] | 9.36
ATAAAGCCATACAATACACACATTTTACATGTCGGT [CACACA_site3265] | 9.66
ATTCTATATGTTACATAAACCTATATTTTTTTTTTT [CACACA_negctrl_site860] | 9.31
TAAGCCACCATATTTACACACACATCAAAATGTATT [CACACA_site1815] | 9.77
GAAAAAAGAAATTTATGTACATACATATATATATAT [XGTACX_site7888] | 9.03
ATATGTAAAATATGGGGTACGAAGGTAGGTAGGTAA [XGTACX_site1392] | 9.88
ATAAATACTAAAAATGAAATATAGAAAATAGCAATA [CACACA_negctrl_site501] | 9.61
